Reference: the supplement of paper PMC3334620
Over roughly 33,000 sequences, “E-score (-0.5 to 0.5)” has its median near -0.032; the highest 2% begin near 0.36. This is one part of the list.

What follows are sequences tested against T1, Sko1 (UniProt Q02100) (assay: PBM E-score (8-mer binding enrichment) (E-score (-0.5 to 0.5)); higher = stronger / more preferred TF binding; most listed sequences are background and not binding sites). Settings: protein concentration: 200 nM; construct: GST-full length.
T1 sequence: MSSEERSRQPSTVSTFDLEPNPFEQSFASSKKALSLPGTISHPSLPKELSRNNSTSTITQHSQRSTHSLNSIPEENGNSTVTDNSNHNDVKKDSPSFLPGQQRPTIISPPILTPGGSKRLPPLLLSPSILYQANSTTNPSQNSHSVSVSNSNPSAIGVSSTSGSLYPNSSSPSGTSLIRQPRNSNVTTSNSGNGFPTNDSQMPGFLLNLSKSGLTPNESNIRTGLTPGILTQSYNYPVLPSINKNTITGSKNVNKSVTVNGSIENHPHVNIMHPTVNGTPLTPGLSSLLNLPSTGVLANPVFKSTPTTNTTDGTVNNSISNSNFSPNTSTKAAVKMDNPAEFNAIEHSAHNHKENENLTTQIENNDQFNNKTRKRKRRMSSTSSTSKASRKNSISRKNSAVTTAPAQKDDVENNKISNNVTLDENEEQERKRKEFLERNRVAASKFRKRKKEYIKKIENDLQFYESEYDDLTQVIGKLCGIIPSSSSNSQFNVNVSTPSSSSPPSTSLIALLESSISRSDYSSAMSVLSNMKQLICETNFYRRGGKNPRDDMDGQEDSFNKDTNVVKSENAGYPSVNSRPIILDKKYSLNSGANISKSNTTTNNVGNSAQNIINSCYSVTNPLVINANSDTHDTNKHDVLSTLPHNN
Summary of the method: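 E-scores (a modified Wilcoxon-Mann-Whitney statistic) were assigned by the Universal PBM Analysis Suite to every ungapped eight-base word pooled with its reverse complement. The input came from universal all-10-mer Agilent arrays made double-stranded by primer extension and probed with GST-tagged yeast transcription factors at about 100-200 nM. Fluorescent anti-GST detected bound protein, and masliner normalised the scans.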

Sequence | PBM E-score
GTGGGCAA | -0.0649
AAGTCGCC | -0.204
CAGGCAAA | 0.00224
CCTGGACC | -0.114
ATCGGAAC | -0.0931
ACCCCACG | -0.149
GCGCTAAC | 0.0782
CCAGAGCG | -0.251
ACGTCTAC | 0.368
AAATCCCC | -0.238
AGCCTGAA | -0.26
ATGCTCGC | -0.0952
CTAACTAA | 0.0491
AACTTGGC | -0.0803
ACCATTGG | -0.15
ACTGACGG | -0.104
ACTCCCTC | -0.256
GACGCATA | 0.295
ACACACTC | 0.0488
AACGCCTA | -0.122
CATGAATA | 0.136
AAGTGTGG | -0.0975
ATCACACA | 0.177
CATCGACA | -0.115
CGGGAACG | -0.0966

Sequence | PBM E-score
ACCCCGAG | -0.305
AGGCCTGC | -0.301
AGTCCTCG | -0.187
GGAGCGGA | -0.324
TGATCAAA | 0.124
ATAGTAAA | 0.18
CAACCCGG | -0.273
GAAATAGC | 0.0207
CCAGTCAC | -0.19
CGTTACCC | -0.085
CTGCGGCA | -0.154
AACCGCCA | -0.0575
GACGTACA | 0.446
GTTTCAGA | 0.0398
AGCGAGCC | -0.107
AGAGAGTC | -0.237
ACCCAAGA | -0.133
CCGTCGGC | -0.337
AAAATTGC | 0.169
CAATGGTG | -0.136
ATGGTTCC | -0.0546
CGACCGAG | -0.161
GTGGGAGA | -0.162
CAACTTGC | -0.00599
CATCGAGA | 0.0586

Sequence | PBM E-score
CGCGCACA | 0.0376
AAAATGTC | 0.184
AGCTCTGG | -0.212
ACTCCGAC | -0.179
ATGCTAAC | -0.0063
AGACCGCT | -0.159
CCACCTAA | -0.105
CTCAGAAG | -0.209
ACGGGTGG | -0.173
CATAACAA | 0.0788
AACGGAGC | -0.2
CCCCGTAC | -0.196
GGCTGCCA | -0.277
CACACGTC | 0.446
AAGTCACT | 0.144
CAGATGTC | 0.0629
ACTCCCGG | -0.304
CTCAGCTC | -0.284
CCTCCCTA | -0.159
GATGGAGA | -0.163
GAGGAAGC | -0.233
ATGACAGC | 0.159
ACGGGGCC | -0.139
CTTTAAGC | -0.0198
CTCGATCC | -0.0525

Sequence | PBM E-score
CTCTACCC | -0.142
AAGATCTC | 0.00758
GGGAACAC | -0.139
CGACCAAC | -0.0167
AATACTAG | 0.154
AGACACCG | -0.0354
ACCCATGC | -0.039
TCATCAGA | 0.144
GGTGGTAC | -0.293
AACCAACG | 0.132
TATTTCGA | 0.231
GGTGAGTA | -0.195
AGCAGCGC | -0.216
AGTAGCAA | 0.141
CAAAACCC | 0.131
CCAGCGTC | -0.229
CACTCATC | 0.0198
CGCGCCAC | 0.0021
AGACCCAA | -0.148
GTGGAAAA | 0.0314
GTGCGAAA | 0.0883
AGACCACG | 0.00258
AAACAAGA | 0.0562
AGGACTTC | -0.236
CATCTTCG | -0.0287

Sequence | PBM E-score
GTCACTGA | 0.226
ACATGCCT | -0.102
ATTCTGAG | -0.104
TATTGTCA | 0.218
ATTTCACA | 0.128
ACCGCCGA | -0.205
CTTACAAA | 0.00511
CGCGATCC | -0.103
GACAATGC | 0.0158
GAGATCCA | -0.146
ACGGTGCG | 0.134
GTCAATTA | 0.249
ACACGAAA | 0.201
TAGTTATA | 0.259
AGAGATTC | -0.0146
GGCAACAA | 0.0429
AATTCCGA | -0.077
AGATCTGG | -0.231
AACAAGCG | 0.163
TACCGAAA | -0.0334
TACACAGA | 0.037
CCTTACAC | -0.0485
AAGAAGCT | 0.198
ATGCTTAG | 0.126
GCGTTGCC | -0.0432

Sequence | PBM E-score
CTTAGCGA | -0.028
AGCGCCTG | -0.237
GACCATTA | 0.0674
ACTTACAC | 0.114
CAATGTCG | 0.275
AATGAGTC | 0.0758
GGACGCCA | -0.0848
CATAGGGG | -0.149
GCCGACCA | -0.232
ACAAATGA | 0.227
AGACTACT | 0.0448
ATCCTAAC | 0.0444
CGAGCCGC | 0.00566
AGGTAAGG | -0.0698
TGAGCTAA | 0.229
AGAGACAA | -0.0923
GATAGGCA | -0.0497
CAAACTCC | 0.049
GGAGCTAA | -0.114
AACATGGT | -0.183
ATGGTCAG | 0.0509
GAACTGGA | -0.0624
TATGAAAA | 0.0631
CGCGTGAA | 0.152
AGGATTAA | -0.0239

Sequence | PBM E-score
GACTTGAC | 0.0909
AATGAAGC | -0.0775
CCCTGTCC | -0.395
CCGTCTTA | 0.00816
AATCGCTG | -0.0909
CGAATGTA | 0.0563
GCGGCAAA | -0.177
AATCCCCC | -0.18
ATGTAATC | 0.313
CGCCATTA | 0.117
CTGCAAAC | -0.114
CAGCAAGA | 0.0103
CTCCTAAA | -0.0427
CAATATTA | 0.264
TAGGAAAA | 0.0436
ACCGCTTA | -0.00218
AAGCTCGG | -0.169
AGAGATTG | 0.0375
AGAGCTGA | -0.0834
ATTGTTCC | 0.0873
AGGCGGAG | -0.291
GCGCAGCC | -0.339
AGTCGGCA | -0.283
ATATAGAT | 0.212
GTCGTGTA | 0.169

Sequence | PBM E-score
AACCCACG | 0.197
CACCCCAG | -0.051
CCGTCAAC | -0.0749
AATCCACA | -0.0329
AGGTTGGG | -0.0653
TCACCCCA | 0.00788
AATATCCA | 0.0476
AGTATGAC | 0.376
GAGTGGAC | -0.0211
GCGATGAC | 0.374
AAAATGTG | 0.062
CCGTGATA | -0.0242
AAACCAGG | -0.167
ACCCTCAC | -0.0312
GATTTCCA | -0.117
ATAGCTGA | 0.00588
AAGCTAGA | 0.0548
GGAAGATA | 0.104
CGCACCTC | -0.192
CAGTTGCA | -0.0805
CATGTTAC | 0.202
GTAGCAAA | 0.135
CCATAGCC | -0.247
CAGCCCCG | -0.18
CCGGCCGA | -0.238

Sequence | PBM E-score
TAGCGTCA | 0.398
ATCGGCAT | -0.0245
CACTCTTC | -0.19
GTTAATGA | 0.297
CACGCAGG | 0.173
CGACAGCC | -0.0783
AAGACATC | 0.0317
ATCCTGGA | -0.0497
GGTCCATA | -0.211
ATGATTTC | 0.163
GTGAAACA | 0.207
CCCCCAGG | -0.245
CGTAAAAC | 0.256
CGACATTA | 0.255
GTAGCCTA | 0.0742
GCATTGAA | 0.081
GTAGCGAC | -0.02
GGCCTAGA | -0.134
AGGTAGTC | -0.143
